Measurements: PMC6919601, “Identification of Plasmodium dipeptidyl aminopeptidase allosteric inhibitors by high throughput screening” (PLoS ONE, 2019)
“And” between values parts separate entries of the source, which are not always exact repeats. Equal values may be shown once. About 230 (0.21%) of roughly 110,000 compounds showed an effect of 50% or more. Some of the results follow.

Biological target: DPAP1 (Plasmodium falciparum, UniProt Q8IIJ9)
Test: primary screen, percent inhibition; read by cleavage of a fluorogenic dipeptide substrate; higher = more effect of the substance
Set-up: species or system P. falciparum D10 trophozoite lysates; single well
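Note: 30 min substrate incubation versus DMSO and 10 µM JCP410 controls.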

DPAP1, sequence (Q8IIJ9 whole entry, looked up): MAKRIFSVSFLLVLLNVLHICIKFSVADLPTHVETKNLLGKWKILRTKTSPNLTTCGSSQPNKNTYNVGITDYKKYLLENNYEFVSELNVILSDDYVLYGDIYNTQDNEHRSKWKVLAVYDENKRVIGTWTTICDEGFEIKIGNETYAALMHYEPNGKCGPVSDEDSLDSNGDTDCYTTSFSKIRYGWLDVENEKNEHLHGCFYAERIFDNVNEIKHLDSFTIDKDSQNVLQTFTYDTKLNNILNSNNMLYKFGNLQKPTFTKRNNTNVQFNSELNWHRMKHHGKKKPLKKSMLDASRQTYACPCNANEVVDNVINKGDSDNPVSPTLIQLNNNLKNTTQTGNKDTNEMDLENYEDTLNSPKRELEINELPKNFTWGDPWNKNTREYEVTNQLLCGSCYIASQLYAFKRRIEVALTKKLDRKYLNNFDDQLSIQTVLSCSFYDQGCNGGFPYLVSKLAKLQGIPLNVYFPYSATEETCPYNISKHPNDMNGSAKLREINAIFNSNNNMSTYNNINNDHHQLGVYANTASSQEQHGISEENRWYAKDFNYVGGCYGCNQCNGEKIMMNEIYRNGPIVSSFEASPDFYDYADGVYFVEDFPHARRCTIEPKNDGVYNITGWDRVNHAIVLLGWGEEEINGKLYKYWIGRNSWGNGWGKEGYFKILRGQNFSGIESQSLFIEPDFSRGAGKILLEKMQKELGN

Row | Structure (SMILES) | % Inhibition @ 10 uM
1 | CCOC(=O)C1=C(C)N=c2s/c(=C\c3ccncc3)c(=O)n2C1c1ccc(OCC)c(OCC)c1 (stereo not shown) | -5.26%
2 | CC(=O)N(C)c1ccc(NC(=O)c2ccc(Br)cc2)cc1 | -2.85%
3 | Cc1sc(C2C(C#N)=C(N)OC3=C2C(=O)CCC3)cc1CSc1nc2ccccc2s1 (stereo not shown) | 2.62%
4 | O=C1CC(c2ccccc2)CC(=O)C1=CNCCN1CCN(C2OC(=O)c3ccccc32)CC1 (stereo not shown) | -1.92%
5 | Cc1ccc(S(=O)(=O)NCC2CCC(C(=O)NCC(C)c3ccccc3)CC2)cc1 (stereo not shown) | -2.72%
6 | CC(C)CCNC(=O)c1cc2sc(Cl)cc2n1C | -6.68%
7 | CCCn1c2ccccc2c2cnn(CC(=O)NC3CCCCC3)c(=O)c21 | -1.96%
8 | C=CCOc1ccc(C2c3c(oc4ccccc4c3=O)C(=O)N2Cc2ccc3c(c2)OCO3)cc1 (stereo not shown) | -6.94%
9 | NC(=O)c1ccc(SCC(=O)O)c([N+](=O)[O-])c1 | -2.66%
10 | Cc1[nH]c2ccccc2c1CCNC(=O)COc1ccc(F)cc1F | 2.49%
11 | O=C(c1ccc2c(c1)c1ccccc1n2Cc1ccccc1)C(F)(F)F | 0.526%
12 | CCOc1ccccc1NC(=O)CN(c1ccc(C)cc1C)S(C)(=O)=O | 6.69%
13 | Cc1c(C)n(C)c2ccc(C(=O)NCCN3CCCC3)cc12 | -2.1%
14 | O=C(NCc1ccccc1F)C1CCCN(c2cnccn2)C1 (stereo not shown) | -2.84%
15 | CCc1ccccc1NC(=O)c1ccoc1C | 1.86%
16 | O=C(Nc1nccs1)C1CCCN(S(=O)(=O)c2cccc3cccnc23)C1 (stereo not shown) | -10.4%
17 | N#CC1C(=O)NC(=S)N(c2ccccc2)C1c1ccccc1 (stereo not shown) | -3.27%
18 | CC(CCC(=O)O)C1CCC2C3CC=C4CC(O)CCC4(C)C3CCC12C (stereo not shown) | -4.93%
19 | O=C(CCc1nc2cccnc2n1Cc1cccs1)NCCc1cccs1 | -3.45%
20 | COc1ccc2sc(NC(=O)Cc3cn(C)c4ccccc34)nc2c1 | 1.08%
21 | CN(C)/C=C1/C(=O)N(c2nc3ccccc3s2)N=C1c1ccccc1 | 1.26%
22 | O=C(NCC(O)c1ccccc1)c1cccc(Cl)c1 (stereo not shown) | -2.51%

Row | Structure (SMILES) | % Inhibition @ 10 uM
23 | COCCNC(=O)C(CC(C)C)N1Cc2ccccc2C1=O (stereo not shown) | 1.31%
24 | CCOc1ccc(NC(=O)Cn2cnc3c(=O)n(C)c(=O)n(C)c32)cc1 | 6.69%
25 | CCOC(=O)N1CCC(NC(=O)CCc2c(C)nc3nc(C)nn3c2C)CC1 | -0.465%
26 | COc1ccc(S(=O)(=O)Nc2ccc(-c3cn4ccsc4n3)cc2)cc1OC | -0.99%
27 | CCN1CCC(NC(c2ccccc2)c2ccccc2)CC1 | -3.6%
28 | COCC(=O)Nc1nc2nc(C)c(C)c(O)n2n1 | 0.401%
29 | O=C(NCC1CCCO1)c1ccc(Cl)cc1 (stereo not shown) | -6.44%
30 | COc1ccc(-n2c(SCC(N)=O)nnc2-c2cccs2)cc1 | -1.52%
31 | C=CCN1C(=O)/C(=C\c2cccc(Cl)c2)C(C(=O)OC)=C1C | 0.0538% and -5.26%
32 | COC(=O)C1=CN(C)C=C(C(=O)OC)C1c1cc(OC)c(OC)c(OC)c1 | -1.48%
33 | Cc1ccccc1COc1ccc(/C=C2/C(=N)N3C(=NC2=O)SN=C3S(C)(=O)=O)cc1 | 1.85%
34 | CSc1ccc(CCNC(=O)CCC(=O)N2Cc3ccccc3Oc3ncccc32)cc1 | 2.33%
35 | CCC(C)c1ccccc1OCC(=O)Nc1cnc(O)nc1O (stereo not shown) | 1.96%
36 | N#Cc1ccc(Oc2ccc(NC(=O)c3ccc(Br)o3)cc2)cc1 | -0.63%
37 | C/C(S)=N\c1c(O)[nH]c2ccccc12 | -3.13%
38 | Cc1ccc(C)n1-c1nnc(N2CCC(C(=O)N3CCN(c4ccccn4)CC3)CC2)s1 | 2.65%
39 | CCCC(=O)Nc1ccc(C(=O)Nc2ccccc2OC)cc1 | 1.73%
40 | Cc1ccc(OCC(=O)Nc2cccc(Cl)c2)cc1 | -0.545%
41 | Cc1ccc(-c2nc(CS(=O)(=O)CC(=O)NCCC(C)C)c(C)o2)cc1 | -7.53%
42 | CC(C)CSC1=NSC2=NC(=O)/C(=C\c3coc4ccccc4c3=O)C(=N)N12 | 17.4%
43 | CCc1nnc(OCC(=O)NC2CCN(Cc3ccccc3)CC2)c2cc3cc(F)ccc3n12 | 4.79%
44 | CCCS(=O)(=O)N1CCN(C2CCN(Cc3ccccc3)CC2)CC1 | 6.89%

Row | Structure (SMILES) | % Inhibition @ 10 uM
45 | CCOc1ccc(-c2[nH]nc3c2C(C2CC=CCC2)C(C#N)=C(N)O3)cc1 (stereo not shown) | 0.722%
46 | Cc1ccc(C(C)C)c(OCC(O)CN2CCC(Cc3ccccc3)CC2)c1 (stereo not shown) | 0.565%
47 | Cc1ccsc1CN1CCN(Cc2ccccc2)CC1 | -9.41%
48 | CCN1CCN(CC(c2ccccc2)c2ccccc2)CC1 | -4.14%
49 | Cc1[nH]c(-c2ccc(F)cc2)cc1C(=O)N(C)Cc1ccco1 | 1.68%
50 | COc1c(Cl)cc(C(=O)Nc2nc3ccccc3s2)cc1Cl | 18.3%
51 | COc1ccc(-c2nn(C)c(=O)c3ccccc23)cc1CNC(=O)c1cccs1 | -5.24%
52 | CC(N)Cc1ccccc1Sc1ccc(O)cc1 (stereo not shown) | -4.12%
53 | Cc1nc2cc(NC(=O)CNS(=O)(=O)c3c(C)c(C)cc(C)c3C)ccc2s1 | -2.98%
54 | Cc1cc(O)nc2sc(C(=O)c3ccc(Br)cc3)c(N)c12 | 3.01%
55 | CCCN1C(=O)c2[nH]nc(-c3ccccc3O)c2C1c1ccccc1F (stereo not shown) | 2.02%
56 | Brc1ccc(OCCCCCCN2CCCCC2)cc1 | 3%
57 | CC(O)CN(Cc1c(Cl)cccc1Cl)CC(C)O (stereo not shown) | -5.26%
58 | Cc1ccc(C2=NN(CCC(=O)NCCc3ccc(Cl)cc3)C(=O)CC2)cc1 | -5.43%
59 | Cc1ccc(Nc2nc(Cl)nc(N(c3ccccc3)c3ccccc3)n2)cc1 | -5.5%
60 | CCc1ccc(/C=C2\C(=O)NN(c3ccc(Cl)c(Cl)c3)C2=O)cc1 | -5.23%
61 | COc1cccc(C2=N/C(=C\C=C\c3ccccc3OC)C(=O)O2)c1 | -1.33%
62 | CC(=O)Nc1ccc(-c2ccc(OCc3ccccc3F)cc2)cc1 | -0.925%
63 | O=C(C(=O)N1CCCN(c2ncc(C(F)(F)F)cc2Cl)CC1)c1c[nH]c2ccccc12 | 2.51%
64 | CC(=O)Nc1cccc(Oc2nc(-c3ccccc3F)nc3ccccc23)c1 | 0.755%
